Laboratory results from the supplement of paper PMC12217912.
The list shows a part of the results. Sequences were assembled here from the parent chain. Inactive controls read about 0.05.

B1: TEV protease; numbered along this chain (parent)
chain: MGESLFKGPRDYNPISSSICHLTNESDGHTTSLYGIGFGPFIITNKHLFRRNNGTLVVQSLHGVFKVKDTTTLQQHLVDGRDMIIIRMPKDFPPFPQKLKFREPQREERICLVTTNFQTKSMSSMVSDTSCTFPSGDGIFWKHWIQTKDGQCGSPLVSTRDGFIVGIHSASNFTNTNNYFTSVPKNFMELLTNQEAQQWVSGWRLNADSVLWGGHKVFMVKPEEPFQPVKEATQL

Variants of: B1
Assay: raw area under fraction-flipped curve 0-4 h after induction (AUC4h, not background-subtracted), DNA-recorder readout of cleavage of the substrate (dimensionless); higher = more cleavage of the substrate by the protease variant
Details: temperature: 34 °C; time window: 0-4 h after rhamnose induction
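Further: Bxb1 expression induced with 0.2% (w/v) L-rhamnose at OD600 near 0.5, cultures sampled hourly, flipped fraction per protease–substrate barcode pair counted by paired-end Illumina sequencing.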

Variant | area with substrate ENLYFQC | area with substrate ENLYFQF | area with substrate ENLYFQL | area with substrate ENLYFQN | area with substrate ENLYFQS | area with substrate ENLYFQD | area with substrate ENLYFQG | area with substrate ENLYFQI | area with substrate ENLYFQM | area with substrate ENLYFQP
MGESLFKGPRDYNPISSSICHLTNESDGHTTSLYGIGFGPFIITNKHLFRRNNGTLVVQSLHGVFKVKDTTTLQQHLVDGRDMIIIRMPKDFPPFPQKLKFREPQREERICLVTTNFQTKSMSSMVSDTSCTFPSGDGIFWKHWIQTKDGQCGSPLVSTRDGFIVGIHSASNFTNTNNYFTSVPKFFMELLTNQEAQQWVSGWRLNADSVLWGGHKVFMVKPEEPFQPVKEATQL [N186F] | 0.115 | 0.0728 | 0.0575 | 0.103 | 0.107 |  |  |  |  | 
MGESLFKGPRDYNPISSSICHLTNESDGHTTSLYGIGFGPFIITNKHLFRRNNGTLVVQSLHGVFKVKDTTTLQQHLVDGRDMIIIRMPKDFPPFPQKLKFREPQREERICLVTTNFQTKSMSSMVSDTSCTFPSGDGIFWKHWIQTKDGQCGSPLVSTRDGFIVGIHSASNFTNTNNYFTSVPKNFRELLTNQEAQQWVSGWRLNADSVLWGGHKVFMVKPEEPFQPVKEATQL [M188R] | 0.101 |  | 0.0481 | 0.0598 | 0.0952 | 0.0535 | 0.09 | 0.0613 | 0.0952 | 0.0527
MGESLFKGPRDYNPISSSICHLTNESDGHTTSLYGIGFGPFIITNKHLFRRNNGTLVVQSLHGVFKVKDTTTLQQHLVDGRDMIIIRMPKDFPPFPQKLKFREPQREERICLVTTNFQTKSMSSMVSDTSCTFPSGDGIFWKHWIQTKDGQCGSPLVSTRDGFIVGIHSASNFTNTNNYFTSVPKNFMETLTNQEAQQWVSGWRLNADSVLWGGHKVFMVKPEEPFQPVKEATQL [L190T] | 0.114 |  | 0.0601 |  | 0.113 |  | 0.094 | 0.0694 |  | 
MGESLFKGPRDYNPISSSICHLTNESDGHTTSLYGIGFGPFIITNKHLFRRNNGTLVVQSLHGVFKVKDTTTLQQHLVDGRDMIIIRMPKDFPPFPQKLKFREPQREERICLVTTNFQTKSMSSMVSDTSCTFPSGDGIFWKHWIQTKDGQCGSPLVSTRDGFIVGIHSASNFTNTNNYFTSVPKNFMELQTNQEAQQWVSGWRLNADSVLWGGHKVFMVKPEEPFQPVKEATQL [L191Q] | 0.0689 |  | 0.0449 | 0.0497 | 0.063 |  |  | 0.0585 | 0.0652 | 0.0607
MGESLFKGPRDYNPISSSICHLTNESDGHTTSLYGIGFGPFIITNKHLFRRNNGTLVVQSLHGVFKVKDTTTLQQHLVDGRDMIIIRMPKDFPPFPQKLKFREPQREERICLVTTNFQTKSMSSMVSDTSCTFPSGDGIFWKHWIQTKDGQCGSPLVSTRDGFIVGIHSASNFTNTNNYFTSVPKNFMELLTKQEAQQWVSGWRLNADSVLWGGHKVFMVKPEEPFQPVKEATQL [N193K] | 0.0926 | 0.0839 |  | 0.082 | 0.0941 | 0.0865 | 0.0706 | 0.142 |  | 
MGESLFKGPRDYNPISSSICHLTNESDGHTTSLYGIGFGPFIITNKHLFRRNNGTLVVQSLHGVFKVKDTTTLQQHLVDGRDMIIIRMPKDFPPFPQKLKFREPQREERICLVTTNFQTKSMSSMVSDTSCTFPSGDGIFWKHWIQTKDGQCGSPLVSTRDGFIVGIHSASNFTNTNNYFTSVPKNFMELLTQQEAQQWVSGWRLNADSVLWGGHKVFMVKPEEPFQPVKEATQL [N193Q] | 0.0882 |  |  | 0.0676 | 0.0901 |  | 0.0987 | 0.0646 | 0.0733 | 
MGESLFKGPRDYNPISSSICHLTNESDGHTTSLYGIGFGPFIITNKHLFRRNNGTLVVQSLHGVFKVKDTTTLQQHLVDGRDMIIIRMPKDFPPFPQKLKFREPQREERICLVTTNFQTKSMSSMVSDTSCTFPSGDGIFWKHWIQTKDGQCGSPLVSTRDGFIVGIHSASNFTNTNNYFTSVPKNFMELLTYQEAQQWVSGWRLNADSVLWGGHKVFMVKPEEPFQPVKEATQL [N193Y] | 0.0882 |  |  |  | 0.0769 |  | 0.044 | 0.0498 |  | 
MGESLFKGPRDYNPISSSICHLTNESDGHTTSLYGIGFGPFIITNKHLFRRNNGTLVVQSLHGVFKVKDTTTLQQHLVDGRDMIIIRMPKDFPPFPQKLKFREPQREERICLVTTNFQTKSMSSMVSDTSCTFPSGDGIFWKHWIQTKDGQCGSPLVSTRDGFIVGIHSASNFTNTNNYFTSVPKNFMELLTNCEAQQWVSGWRLNADSVLWGGHKVFMVKPEEPFQPVKEATQL [Q194C] | 0.101 |  | 0.0568 | 0.0877 | 0.124 | 0.0441 | 0.135 | 0.0455 | 0.0954 | 0.0589
MGESLFKGPRDYNPISSSICHLTNESDGHTTSLYGIGFGPFIITNKHLFRRNNGTLVVQSLHGVFKVKDTTTLQQHLVDGRDMIIIRMPKDFPPFPQKLKFREPQREERICLVTTNFQTKSMSSMVSDTSCTFPSGDGIFWKHWIQTKDGQCGSPLVSTRDGFIVGIHSASNFTNTNNYFTSVPKNFMELLTNQHAQQWVSGWRLNADSVLWGGHKVFMVKPEEPFQPVKEATQL [E195H] | 0.117 |  |  |  | 0.102 |  |  |  |  | 0.0458
MGESLFKGPRDYNPISSSICHLTNESDGHTTSLYGIGFGPFIITNKHLFRRNNGTLVVQSLHGVFKVKDTTTLQQHLVDGRDMIIIRMPKDFPPFPQKLKFREPQREERICLVTTNFQTKSMSSMVSDTSCTFPSGDGIFWKHWIQTKDGQCGSPLVSTRDGFIVGIHSASNFTNTNNYFTSVPKNFMELLTNQSAQQWVSGWRLNADSVLWGGHKVFMVKPEEPFQPVKEATQL [E195S] | 0.0893 | 0.0614 |  | 0.0698 | 0.0979 |  |  | 0.0608 |  | 

Same assay, conditions: temperature: 34 °C; time window: 0-4 h after rhamnose induction

Variant | area with substrate ENLYFQR | area with substrate ENLYFQV | area with substrate ENLYFQW | area with substrate ENLYFQK | area with substrate ENLYFQH | area with substrate ENLYFQT | area with substrate ENLYFQY | area with substrate ENLYFQQ
MGESLFKGPRDYNPISSSICHLTNESDGHTTSLYGIGFGPFIITNKHLFRRNNGTLVVQSLHGVFKVKDTTTLQQHLVDGRDMIIIRMPKDFPPFPQKLKFREPQREERICLVTTNFQTKSMSSMVSDTSCTFPSGDGIFWKHWIQTKDGQCGSPLVSTRDGFIVGIHSASNFTNTNNYFTSVPKNFRELLTNQEAQQWVSGWRLNADSVLWGGHKVFMVKPEEPFQPVKEATQL [M188R] | 0.0559 | 0.0522 | 0.0584 |  |  |  |  | 
MGESLFKGPRDYNPISSSICHLTNESDGHTTSLYGIGFGPFIITNKHLFRRNNGTLVVQSLHGVFKVKDTTTLQQHLVDGRDMIIIRMPKDFPPFPQKLKFREPQREERICLVTTNFQTKSMSSMVSDTSCTFPSGDGIFWKHWIQTKDGQCGSPLVSTRDGFIVGIHSASNFTNTNNYFTSVPKNFMETLTNQEAQQWVSGWRLNADSVLWGGHKVFMVKPEEPFQPVKEATQL [L190T] | 0.067 |  | 0.0922 | 0.0585 |  |  |  | 
MGESLFKGPRDYNPISSSICHLTNESDGHTTSLYGIGFGPFIITNKHLFRRNNGTLVVQSLHGVFKVKDTTTLQQHLVDGRDMIIIRMPKDFPPFPQKLKFREPQREERICLVTTNFQTKSMSSMVSDTSCTFPSGDGIFWKHWIQTKDGQCGSPLVSTRDGFIVGIHSASNFTNTNNYFTSVPKNFMELQTNQEAQQWVSGWRLNADSVLWGGHKVFMVKPEEPFQPVKEATQL [L191Q] | 0.0466 | 0.0757 | 0.0531 |  | 0.0464 | 0.0695 |  | 
MGESLFKGPRDYNPISSSICHLTNESDGHTTSLYGIGFGPFIITNKHLFRRNNGTLVVQSLHGVFKVKDTTTLQQHLVDGRDMIIIRMPKDFPPFPQKLKFREPQREERICLVTTNFQTKSMSSMVSDTSCTFPSGDGIFWKHWIQTKDGQCGSPLVSTRDGFIVGIHSASNFTNTNNYFTSVPKNFMELLTKQEAQQWVSGWRLNADSVLWGGHKVFMVKPEEPFQPVKEATQL [N193K] | 0.0627 |  | 0.065 |  |  |  |  | 
MGESLFKGPRDYNPISSSICHLTNESDGHTTSLYGIGFGPFIITNKHLFRRNNGTLVVQSLHGVFKVKDTTTLQQHLVDGRDMIIIRMPKDFPPFPQKLKFREPQREERICLVTTNFQTKSMSSMVSDTSCTFPSGDGIFWKHWIQTKDGQCGSPLVSTRDGFIVGIHSASNFTNTNNYFTSVPKNFMELLTQQEAQQWVSGWRLNADSVLWGGHKVFMVKPEEPFQPVKEATQL [N193Q] | 0.0517 |  |  |  |  | 0.0549 | 0.0752 | 
MGESLFKGPRDYNPISSSICHLTNESDGHTTSLYGIGFGPFIITNKHLFRRNNGTLVVQSLHGVFKVKDTTTLQQHLVDGRDMIIIRMPKDFPPFPQKLKFREPQREERICLVTTNFQTKSMSSMVSDTSCTFPSGDGIFWKHWIQTKDGQCGSPLVSTRDGFIVGIHSASNFTNTNNYFTSVPKNFMELLTYQEAQQWVSGWRLNADSVLWGGHKVFMVKPEEPFQPVKEATQL [N193Y] | 0.0537 |  |  |  | 0.0654 |  |  | 
MGESLFKGPRDYNPISSSICHLTNESDGHTTSLYGIGFGPFIITNKHLFRRNNGTLVVQSLHGVFKVKDTTTLQQHLVDGRDMIIIRMPKDFPPFPQKLKFREPQREERICLVTTNFQTKSMSSMVSDTSCTFPSGDGIFWKHWIQTKDGQCGSPLVSTRDGFIVGIHSASNFTNTNNYFTSVPKNFMELLTNCEAQQWVSGWRLNADSVLWGGHKVFMVKPEEPFQPVKEATQL [Q194C] | 0.0734 | 0.0455 |  | 0.0663 | 0.0696 |  | 0.0715 | 0.0614
MGESLFKGPRDYNPISSSICHLTNESDGHTTSLYGIGFGPFIITNKHLFRRNNGTLVVQSLHGVFKVKDTTTLQQHLVDGRDMIIIRMPKDFPPFPQKLKFREPQREERICLVTTNFQTKSMSSMVSDTSCTFPSGDGIFWKHWIQTKDGQCGSPLVSTRDGFIVGIHSASNFTNTNNYFTSVPKNFMELLTNQHAQQWVSGWRLNADSVLWGGHKVFMVKPEEPFQPVKEATQL [E195H] |  | 0.0509 |  |  |  | 0.0429 |  | 
MGESLFKGPRDYNPISSSICHLTNESDGHTTSLYGIGFGPFIITNKHLFRRNNGTLVVQSLHGVFKVKDTTTLQQHLVDGRDMIIIRMPKDFPPFPQKLKFREPQREERICLVTTNFQTKSMSSMVSDTSCTFPSGDGIFWKHWIQTKDGQCGSPLVSTRDGFIVGIHSASNFTNTNNYFTSVPKNFMELLTNQSAQQWVSGWRLNADSVLWGGHKVFMVKPEEPFQPVKEATQL [E195S] | 0.0627 |  |  |  |  |  |  | 
